In PubChem BioAssay AID1745847 (National Center for Advancing Translational Sciences (NCATS), 2022):
The campaign covered roughly 2,100 compounds. About 670 (32%) were called active. This list was built around the results that the source calls inconclusive (neither active nor inactive); the mix of calls is not that of the screen. The call rests on the fitted dose curve; in most records, active means well fitted inhibition curve with a large enough effect; inconclusive means small, poorly fitted or top-dose-only effect; inactive means no such curve, though single readings can be large or run the other way. Potencies of inconclusive entries are doubtful fits and often do not repeat.

assay: CMV-Luciferase Counterscreen for Inhibitors of ATXN expression; conditions: HEK-293 CMV-luciferase reporter, luminescence, 24 h; series mostly up to 57.5 µM; activity change, negative = inhibition: at the top concentration; further: nearly all actives have a fitted effect of over 55% in size
On the % scale 0 is the no-effect control and ±100 the full control effect; potency means the concentration at half of the fitted maximal effect; tags describe the fitted curve by direction and shape.

Compound | Potency | activity change, negative = inhibition
CC(=NCCc1c[nH]c2ccccc12)c1c(O)n(Cc2ccccc2)c(=O)[nH]c1=O | inconclusive: 25.1 µM [inhibitor, single point] | –
CNCC(O)c1cc(OCc2ccccc2)c(OCc2ccccc2)cc1F (centres undefined) | inconclusive: 39.8 µM [inhibitor, single point] | –
CC(=O)O[C@H]1[C@H]2O[C@]23[C@@H]2CC[C@]4(O)C[C@@H](O)CC[C@]4(C)C2CC[C@]3(C)[C@H]1c1ccc(=O)oc1 (some centres undefined) | – | inactive: -18.3% [at 11.4 µM]
NC(=O)c1c(Br)n(C2OC(CO)C(O)C2O)c2ncnc(N)c12 (centres undefined) | inconclusive: 3.55 µM [inhibitor, partial curve] | –
CC12CCC(O)CC1CCC1C2CCC2(C)C(C3=CC(=O)OC3)CCC12O (centres undefined) | – | inactive: 9.59%
CCC1(OC(=O)CN)C(=O)OCc2c1cc1n(c2=O)Cc2cc3ccccc3nc2-1 (centres undefined) | – | inactive: -43.6% [at 11.4 µM]
CC(C)CCNC(=O)c1c(N)n(Cc2ccc3c(c2)OCO3)c2nc3ccccc3nc12 | inconclusive: 20 µM [inhibitor, partial curve, poor fit] | –
CCOc1cc(CNCCc2c[nH]c3ccccc23)cc(Cl)c1OC | inconclusive: 25.1 µM [inhibitor, single point] | –
O=C(NN=Cc1ccc(N(CCCl)CCCl)cc1)c1cc(=O)[nH]c(=O)[nH]1 | inconclusive: 7.94 µM [inhibitor, full curve] | –
COc1ccc(O)c2c(=O)c3c(OC)cc4c(c3oc12)C1C=COC1O4 (centres undefined) | inconclusive: 1.41 µM [inhibitor, full curve, poor fit] | –
O=c1[nH]c2ccccc2n1C1CCN(C(CCc2ccccc2)c2nnnn2C2CCCC2)CC1 (centres undefined) | active: 14.1 µM | –
COc1cc2c(cc1OC)-c1c3c(cc4c1[C@@H](C2)N(C)CC4)OCO3 | inconclusive: 3.98 µM [inhibitor, partial curve, poor fit] | –
COc1ccc(CC2C(=O)NC(C)C(=O)N(C)C3C(=O)N(C)C(Cc4ccc(O)c(c4)Oc4ccc(cc4)C3O)C(=O)NC(C)C(=O)NC(C)C(=O)N2C)cc1 (centres undefined) | active: 0.891 µM | –
C[C@]12CC[C@H](O)C[C@H]1CC[C@@H]1[C@@H]2CC[C@]2(C)[C@@H](C3=CC(=O)OC3)CC[C@]12O | – | inactive: 6.94%
C[C@]12CCC3C(CCC4=CC(O)CC[C@@]43/C=N/O)C1(O)CCC2C1=CC(=O)OC1 (some centres undefined) | – | inactive: 7.54%
CCC(c1nnnn1-c1ccc2c(c1)OCCO2)N1CCC(n2c(=O)[nH]c3ccccc32)CC1 (centres undefined) | inconclusive: 3.55 µM [inhibitor, single point] | –
CCCCCn1c(NC(=O)c2ccco2)c(C(=O)OCC)c2nc3ccccc3nc21 | inconclusive: 3.55 µM [inhibitor, partial curve] | –
Cc1ccc(N2C(=O)NC(=O)/C(=C\c3cc(C)n(-c4sc5c(c4C#N)CCCC5)c3C)C2=O)cc1 | inconclusive: 11.2 µM [inhibitor, partial curve, poor fit] | –
Cc1nc2ccccc2c(=O)n1/N=C/c1cc(Br)cc(Br)c1O | inconclusive: 17.8 µM [inhibitor, partial curve, poor fit] | –
Cc1ccc(/C=C2\C(=O)NC(=S)N(c3ccccc3F)C2=O)s1 | inconclusive: 6.31 µM [inhibitor, full curve, poor fit] | –
COc1cc(C(=O)NN=Cc2ccc(N(CCCl)CCCl)cc2)cc(OC)c1OC | inconclusive: 8.91 µM [inhibitor, full curve, poor fit] | –
N#Cc1cn(C2OC(CO)C(O)C2O)c2ncnc(N)c12 (centres undefined) | – | inactive: -77.3% [at 11.4 µM]
C=CCCC[C@@H]1OC(=O)CNC(=O)C([C@@H](C)CC)NC(=O)[C@@H]2CCCN2C(=O)C([C@@H](C)CC)OC(=O)[C@H](Cc2ccccc2)N(C)C(=O)[C@H](C(C)C)NC(=O)C1(C)C (some centres undefined) | active: 3.98 µM | –
COc1cc2nc(CN3CC=C(c4ccccc4)CC3)[nH]c(=O)c2cc1OC | – | inactive: 155%
O=C1NC(=O)C2(CCCc3ccc(N(CCCl)CCCl)cc32)N1 (centres undefined) | inconclusive: 3.16 µM [inhibitor, full curve] | –
COc1cc2c(cc1OC)[C@@H]1C(=O)c3ccc4c(c3O[C@@H]1CO2)C[C@H](C(C)C)O4 | inconclusive: 0.708 µM [inhibitor, full curve] | –
CCCCCn1c(=O)c(C(=O)NCc2ccncc2)c(O)c2ccccc21 | inconclusive: 31.6 µM [inhibitor, partial curve, poor fit] | –
C[C@H]1CCC[C@@H](O)CCC/C=C/c2cc(O)cc(O)c2C(=O)O1 | – | inactive: -23.1% [at 11.4 µM]
Clc1ccc2[nH]c3c(c2c1)CCNC3 | – | inactive: -18.6% [at 11.4 µM]
